Among all 310,000 compounds or so, about 2,200 (0.71%) showed an effect of 50% or more. Effects have a minus sign here. This is one part of the list.

The text below walks through data of publication PMC4336329 (PLoS ONE, 2015).

Sequence of human ether-à-go-go-related gene (hERG) potassium channel (Q12809 whole entry, looked up): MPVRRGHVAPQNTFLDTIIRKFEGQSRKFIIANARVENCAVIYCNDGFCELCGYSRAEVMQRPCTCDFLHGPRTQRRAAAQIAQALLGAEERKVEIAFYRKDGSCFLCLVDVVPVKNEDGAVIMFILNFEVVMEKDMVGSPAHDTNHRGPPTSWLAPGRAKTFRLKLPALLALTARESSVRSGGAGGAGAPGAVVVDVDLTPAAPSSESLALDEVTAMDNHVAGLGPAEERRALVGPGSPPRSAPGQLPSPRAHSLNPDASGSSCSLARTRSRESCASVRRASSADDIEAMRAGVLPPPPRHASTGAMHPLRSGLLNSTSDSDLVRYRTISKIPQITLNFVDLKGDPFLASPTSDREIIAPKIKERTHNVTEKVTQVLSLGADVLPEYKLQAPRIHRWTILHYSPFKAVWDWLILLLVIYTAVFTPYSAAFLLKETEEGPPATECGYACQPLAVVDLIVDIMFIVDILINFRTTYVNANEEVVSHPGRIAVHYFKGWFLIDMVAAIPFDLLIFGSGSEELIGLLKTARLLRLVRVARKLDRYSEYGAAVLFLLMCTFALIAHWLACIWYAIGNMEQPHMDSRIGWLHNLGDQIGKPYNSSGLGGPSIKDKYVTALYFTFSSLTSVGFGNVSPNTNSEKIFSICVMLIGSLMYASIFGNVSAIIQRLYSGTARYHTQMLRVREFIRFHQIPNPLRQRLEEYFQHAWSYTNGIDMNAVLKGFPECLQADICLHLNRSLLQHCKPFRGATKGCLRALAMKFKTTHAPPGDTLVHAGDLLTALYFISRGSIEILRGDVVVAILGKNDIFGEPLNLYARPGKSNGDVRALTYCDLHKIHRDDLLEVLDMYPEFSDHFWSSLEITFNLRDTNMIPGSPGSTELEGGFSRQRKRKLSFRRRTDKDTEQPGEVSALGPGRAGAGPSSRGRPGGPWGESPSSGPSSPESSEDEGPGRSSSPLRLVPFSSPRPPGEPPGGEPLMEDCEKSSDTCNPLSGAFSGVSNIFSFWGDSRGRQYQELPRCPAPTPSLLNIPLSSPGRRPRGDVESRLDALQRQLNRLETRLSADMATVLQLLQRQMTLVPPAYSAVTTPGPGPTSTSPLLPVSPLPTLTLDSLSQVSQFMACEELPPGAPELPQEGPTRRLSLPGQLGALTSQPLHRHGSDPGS

This experiment concerns the target human ether-à-go-go-related gene (hERG) potassium channel (human, UniProt Q12809). Put plainly: primary screen, population patch clamp on CHO cells stably expressing hERG.
`C=CCN(c1ccccc1C(=O)NCC(=O)OCC)S(=O)(=O)c1ccc(C)cc1`: the “hERG current change (%, negative = inhibition) at 1uM” value is 10.3%. In the case of `COCCCNC(=S)N1CCN(C(=O)C(=O)Nc2ccc(C(=O)OC)cc2)CC1`, the “hERG current change (%, negative = inhibition) at 1uM” value is reported as 2.94%. With `CCCN1CCN(CCCNC(=O)C2CCN(c3nnc(-n4cccc4)s3)CC2)CC1`, the “hERG current change (%, negative = inhibition) at 1uM” value turned out to be 4.95%. Turning to `O=S(=O)(Nc1ccc(S(=O)(=O)Nc2ncccn2)cc1)c1ccccc1`, the “hERG current change (%, negative = inhibition) at 1uM” value worked out at 13.2%. As for `CCOc1ccc(-c2nnc(NC(=O)c3ccc(OCC(C)C)c(OC)c3)o2)cc1`, the “hERG current change (%, negative = inhibition) at 1uM” value is listed as 11.3%.

On to `CCN(C(=O)CSc1nnc(NCc2ccccc2)s1)C1CCS(=O)(=O)C1` (centres unmarked), for which the “hERG current change (%, negative = inhibition) at 1uM” value stood at 3.15%.

Turning to `Oc1ccccc1CNc1ccc(OC(F)(F)F)cc1`, the “hERG current change (%, negative = inhibition) at 1uM” value is given as -1.42%.

`CS(=O)(=O)N(CC(=O)N1CCCC1)c1ccccc1Br`: the “hERG current change (%, negative = inhibition) at 1uM” value came out at 10.7%. As for `O=C(Nc1cc2c3c(c1)C1CCCC1CN3CC1CCCC21)c1ccc([N+](=O)[O-])cc1` (centres unmarked), the “hERG current change (%, negative = inhibition) at 1uM” value is recorded as 16.6%.

As for `CC(C)N(C(=O)C[n+]1ccsc1N)c1ccccc1.[Cl-]`, the “hERG current change (%, negative = inhibition) at 1uM” value is 12.6%. The figure for `O=C(COc1ccc(F)cc1)NCC1CCCO1` (centres unmarked) is 7.18%; for `O=C(/C=C/c1ccccc1)Oc1coc(CSc2ncccn2)cc1=O` it is 6.71%; for `Cc1ccccc1CNC(=O)c1ccccc1N` it is -1.64%.

Turning to `Cc1ccc(NC2SC(=O)N(CC(=O)O)C2=O)cc1` (centres unmarked), the “hERG current change (%, negative = inhibition) at 1uM” value stood at 2.54%. `Cc1cc(Cl)ccc1NC(=S)Nc1cccnc1`: the “hERG current change (%, negative = inhibition) at 1uM” value is listed as -7.02%. Regarding `CC1CCCCC1NC(=O)CN(C)S(=O)(=O)c1ccc2c(c1)c(=O)n(C)c(=O)n2C` (centres unmarked), the “hERG current change (%, negative = inhibition) at 1uM” value is 4.42%. In the case of `COc1ccccc1NC(=O)c1cc(S(=O)(=O)NC2CCCC2)ccc1F`, the “hERG current change (%, negative = inhibition) at 1uM” value is reported as 10.2%. As to `CC(=O)C1CCCN(C(=O)c2ccc3oc(CCc4ccccc4)nc3c2)C1` (centres unmarked), the “hERG current change (%, negative = inhibition) at 1uM” value is 1.24%. Take `O=C(/C=C/c1cc([N+](=O)[O-])ccc1OC(F)F)Nc1cccc(OC(F)F)c1`: the “hERG current change (%, negative = inhibition) at 1uM” value is recorded as 12.2%.

Turning to `c1ccc(-n2nnnc2-c2cnc(-c3ccncc3)nc2-c2cccs2)cc1`, the “hERG current change (%, negative = inhibition) at 1uM” value was -7.85%. `CCC(=O)Nc1cccc(NC(=S)NC(=O)c2cccs2)c1`: the “hERG current change (%, negative = inhibition) at 1uM” value turned out to be 7.78%. For the compound `O=C(NCc1ccco1)C1CCN(c2ccc(S(=O)(=O)N3CCOCC3)cc2[N+](=O)[O-])CC1`, the “hERG current change (%, negative = inhibition) at 1uM” value is recorded as -51.5%. As for `CC(C)(C)c1[nH]nc2c1C(c1ccco1)C(C#N)=C(N)O2` (centres unmarked), the “hERG current change (%, negative = inhibition) at 1uM” value is listed as 9.53%. For `CCCNC(=O)C1(S(=O)(=O)c2ccccc2)CC=CC1`, the “hERG current change (%, negative = inhibition) at 1uM” value is on record as -14.6%. `Cc1ccc(-c2nnc(Nc3ccc(CC(N)=O)cc3)c3ccccc23)cc1S(=O)(=O)NCC1CCCO1` (centres unmarked): the “hERG current change (%, negative = inhibition) at 1uM” value was 12.4%. For the compound `COc1ccc(F)cc1S(=O)(=O)Nc1cc2c3c(c1)CCC(=O)N3CCC2`, the “hERG current change (%, negative = inhibition) at 1uM” value amounted to 11%. Regarding `CCCCN(C(=O)NCCCCCCNC(=O)N(CCCC)C1CCS(=O)(=O)C1)C1CCS(=O)(=O)C1` (centres unmarked), the “hERG current change (%, negative = inhibition) at 1uM” value is 10.4%. In the case of `COc1ccc(NC(=O)CC2SC(=O)NC2=O)cc1` (centres unmarked), the “hERG current change (%, negative = inhibition) at 1uM” value is reported as 12.6%. Regarding `Cc1ccc2c(c1)N(C(C)C(=O)NCc1cccs1)C(=O)CO2` (centres unmarked), the “hERG current change (%, negative = inhibition) at 1uM” value is reported as 12%.

With `CC(C)(C)c1ccc(C(=O)N/C(=C\c2cccc([N+](=O)[O-])c2)C(=O)Nc2cccc(C(=O)O)c2)cc1`, the “hERG current change (%, negative = inhibition) at 1uM” value is listed as 11.7%. For `Fc1ccccc1/C=N/Nc1nc(N2CCCCC2)nc(N2CCCCC2)n1`, the “hERG current change (%, negative = inhibition) at 1uM” value is on record as 8.57%.

`COc1cccc(N(C(=O)CNC(=O)c2ccco2)C(C(=O)NC2CCCC2)c2cccnc2)c1` (centres unmarked): the “hERG current change (%, negative = inhibition) at 1uM” value is on record as -2.6%.

Take `O=S(=O)(NC1CCN(Cc2ccccc2)CC1)c1cccc2cccnc12`: the “hERG current change (%, negative = inhibition) at 1uM” value is given as -6.17%. Turning to `CCc1nc(N)nc(N)c1-c1ccc(Cl)cc1`, the “hERG current change (%, negative = inhibition) at 1uM” value is reported as -0.702%. In the case of `COC(=O)CC1=C(C(=O)OC)C2(C(=O)Nc3c(C)cccc32)C(C#N)=C(N)O1` (centres unmarked) it was 15.4%; in that of `CCCCNC(=O)Cn1cnc2c(cnn2-c2ccc(C)cc2)c1=O`, 13.9%. In the case of `COc1ccccc1/C=C(\NC(=O)c1ccc(OC)c(OC)c1)C(=O)Nc1cccc([N+](=O)[O-])c1` it was 7.69%; in that of `Cc1cccnc1CC(C)NC(=O)c1cc(COc2cncc(Cl)c2)on1` (centres unmarked), 14.7%; in that of `O=C(Nc1cccc(NC(=O)c2cccs2)c1)c1ccc(Br)cc1`, 12.2%. As to `Cc1ccc(NC(=O)CN2C(=O)COc3ccc(C)cc32)nc1`, the “hERG current change (%, negative = inhibition) at 1uM” value came to 11.3%. The figure for `CCCc1nc(SCC(=O)Nc2ccc(S(=O)(=O)N(C)C)cc2)c2ccccc2n1` is 5.62%; for `O=C(Nc1ccc(-c2nc3cc(Cl)ccc3o2)cc1)C1CCCO1` (centres unmarked) it is 6.6%. On to `CC(Nc1ccc2ccccc2c1)C(=O)N/N=C/c1ccncc1` (centres unmarked), for which the “hERG current change (%, negative = inhibition) at 1uM” value was -12.4%. On to `COc1cccc(NC(=O)CN(C)C(C)C(=O)Nc2ccc(S(=O)(=O)N3CCCC3)cc2)c1` (centres unmarked), for which the “hERG current change (%, negative = inhibition) at 1uM” value is given as 8.31%. For `Cc1cccc2c(C(=O)O)cc(-c3cccnc3)nc12`, the “hERG current change (%, negative = inhibition) at 1uM” value worked out at 18.7%. On to `CC(CCCC(C)(C)O)NC(=O)c1ccc(OC2CCN(C(=O)C3CC3)CC2)cc1` (centres unmarked), for which the “hERG current change (%, negative = inhibition) at 1uM” value is 9.14%. The figure for `Cc1nc(N2CCN(Cc3ccccc3)CC2)nc2c1C(=O)CC(c1ccco1)C2` (centres unmarked) is -0.677%.

For the compound `O=[N+]([O-])c1cc([N+](=O)[O-])c2cccnc2c1Oc1ccccc1O`, the “hERG current change (%, negative = inhibition) at 1uM” value amounted to 10%. Consider `Cc1ccc(C(CC(=O)O)NC(=O)c2ccc(S(=O)(=O)N3CC(C)OC(C)C3)cc2)cc1` (centres unmarked), for which the “hERG current change (%, negative = inhibition) at 1uM” value is on record as 9.17%. `COc1ccc2c(=O)c(C(=O)NCCc3ccc(OC)c(OC)c3)c[nH]c2c1`: the “hERG current change (%, negative = inhibition) at 1uM” value was determined as 13.6%. `O=C(NCCc1ccc(C(F)(F)F)cc1)C1CCC(=O)N(CCc2cccc(F)c2)C1` (centres unmarked): the “hERG current change (%, negative = inhibition) at 1uM” value was -8.56%. Regarding `O=C(COC(=O)c1cccnc1)Nc1ccccc1`, the “hERG current change (%, negative = inhibition) at 1uM” value came to 9.77%. For the compound `COC(=O)c1cnc(Oc2ccc(NC(=O)NC(=O)c3ccccc3Cl)cc2)cc1C(F)(F)F`, the “hERG current change (%, negative = inhibition) at 1uM” value came to 4.04%.
